Assay results published in PubChem BioAssay (NCATS).
Where “and” joins values, the source holds several entries; their conditions need not be identical. Equal values may be shown once. This is one part of the list. These are further read-outs of the screen, such as a control signal, another cell line or another target. No call is given for them. Compounds called inactive in the main read-out are mostly missing here. Words in brackets tell the shape of the fitted curve; partial curves, single points and poor fits give uncertain potencies.

assay: qHTS Assay for Lipid Storage Modulators (AID 1519); details: Drosophila S3 cells, BODIPY lipid droplet/cell ratio, laser cytometry; measured here: cell count channel max response; cells loaded with oleic acid
Summary of the method: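 Cells seeded at 5,000 per well were treated with compounds over a concentration series and loaded with oleic acid (400 uM, as added). Lipid droplet fluorescence (488 nm excitation, 500-530 nm channel) was read by laser-scanning cytometry and normalized to 20 uM Triacsin C.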
Tags describe the fitted curve by direction and shape.

Compound | max response
Cc1cccc(CNc2ncnc3ccc(-c4ccc(C(=O)N(C)C)cc4)cc23)c1 | 2.33%
COc1ccc(-n2c(=O)c(-c3ccccc3)nc3cnc(N4CCNCC4)nc32)cc1 | 23.4%
Cn1c(=O)c(-c2cc(F)cc(F)c2)nc2cnc(N3CCNCC3)nc21 | 22.4%
Cn1cccc1C(=O)N1CCC2(CC1)CCN(c1cccc(-c3ccccc3)c1)CC2 | -1.69%
O=C(c1ccco1)N1CCC2(CCCN(Cc3ccccc3)C2)CC1 | 25.5%
CC(=O)OC1CC[C@@]2(C)C3CC[C@@]4(C)C(CC5O[C@@]6(CCC(C)CO6)C(C)C54)C3CC[C@@H]2C1 (stereo not given in full) | 20.1%
COc1ccc(-n2c(=O)c(C)nc3cncnc32)cc1 | 16.8%
CC(C)c1cccc(O)c(=O)c1 | -25%
CCn1cc(C(=O)O)c(=O)c2cc3c(cc21)OCO3 | 15.9%
CCCN1CC(CSC)C[C@H]2c3cccc4[nH]cc(c34)C[C@H]21 (stereo not given in full) | 17.6%
CN(C)c1ncc2nc(-c3cc(F)cc(F)c3)c(=O)n(C)c2n1 | 29%
Cn1c(=O)c(CCc2ccccc2)nc2cnc(N3CCNCC3)nc21 | 12.7%
CN(C)c1ncc2nc(-c3cc(F)cc(F)c3)c(=O)n(Cc3ccc(F)cc3)c2n1 | 23.7%
c1cncc(-c2ccc3ncnc(NC4CCNCC4)c3c2)c1 | 25.8%
CC(=O)[C@]1(O)CCC2C3CC(C)C4=CC(=O)C=CC4(C)[C@@]3(F)C(O)C[C@]21C (stereo not given in full) | 24.1%
COc1ccc(NC(=O)N2CC[C@@]3(CCCN(C(=O)c4cccc(F)c4)C3)C2)cc1 | 12.8%
COc1ccccc1CCn1c(=O)c(-c2ccc(F)cc2)nc2cncnc21 | 17%
O=c1c(-c2cccs2)nc2cnc(Oc3ccccc3)nc2n1-c1ccccc1 | 36.6%
O=[N+]([O-])c1cccc2cn[nH]c12 | 99.5% and 52.1%
COc1cccc(-c2oc3ccccc3c(=O)c2O)c1 | 55%

Compound | max response
N#CCCn1c(=O)c(-c2ccc(F)cc2)nc2cnc(Oc3ccccc3)nc21 | 18%
COc1ccc2[nH]cc(CCNc3cc(-c4ccccc4CN(C)C)ncn3)c2c1 | 27.6%
COc1cccc(Nc2ncc3ncc(=O)n(CCC#N)c3n2)c1 | 7.06%
NC(=O)c1ncn([C@@H]2O[C@H](CO)[C@@H](O)[C@H]2O)c1O | 42.8%
COc1ccc(Oc2ncc3ncc(=O)n(-c4ccc(OC)cc4)c3n2)cc1 | 18.9%
COc1ccccc1-c1ccc2ncnc(NCc3cccnc3)c2c1 | -20.1%
COc1ncc2nc(-c3ccc(Cl)cc3)c(=O)n(Cc3cccs3)c2n1 | 6.69%
COCCNc1nc(-c2ccccc2C(F)(F)F)nc2ccccc12 | 12.6%
CN(C)C(=O)c1ccc(-c2nc(Nc3ccncc3)c3ccccc3n2)cc1 | -5.56%
O=c1[nH]cnc2c1ncn2C1CC(O)C(CO)O1 (stereo not given) | 14.4%
CC(=O)OCC(=O)[C@@]1(O)CCC2C3CCC4=CC(=O)CC[C@]4(C)C3C(=O)C[C@]21C (stereo not given in full) | 24.3%
CC(C)NC(=O)N1CCCC2(CCN(C(=O)c3ccco3)CC2)C1 | 13.2%
O=C(Nc1ccccc1)N1CC2(CCN(C(=O)c3cc(C(F)(F)F)cc(C(F)(F)F)c3)CC2)C1 | 21.6%
CN1CCN(c2ncc3ncc(=O)n(CCc4ccccc4)c3n2)CC1 | 23.9%
COCCNc1ncnc2ccc(-c3c(C)noc3C)cc12 | 5.17%
CCOc1ccc(Cc2nccc3cc(OCC)c(OCC)cc23)cc1OCC | -26.4%
COc1ccc(-n2c(=O)c(C)nc3cnc(N4CCNCC4)nc32)cc1 | 25.1%
CC(=O)N1CCC2(CC1)CCN(c1ccccc1)CC2 | 28.6%
COc1ccc(C(=O)N2CCC3(CCCN(C(=O)NC(C)C)C3)CC2)cc1 | 23.7%
O=C(c1csnn1)N1CCC[C@@]2(CCN(Cc3ccccc3)C2)C1 | 25.4%

same assay, conditions: Drosophila S3 cells, BODIPY lipid droplet/cell ratio, laser cytometry; measured here: cell number channel AC50; cells loaded with oleic acid

Compound | AC50
O=c1c(-c2cccs2)nc2cnc(Oc3ccccc3)nc2n1-c1ccccc1 | 2.24 µM [rising, full curve]
O=[N+]([O-])c1cccc2cn[nH]c12 | 31.6 µM [rising, partial curve]
COc1cccc(-c2oc3ccccc3c(=O)c2O)c1 | 7.08 µM [rising, full curve]

same assay, conditions: Drosophila S3 cells, BODIPY lipid droplet/cell ratio, laser cytometry; measured here: lipid (BODIPY) channel AC50; cells loaded with oleic acid

Compound | AC50
Cc1cccc(CNc2ncnc3ccc(-c4ccc(C(=O)N(C)C)cc4)cc23)c1 | 2.82 µM [rising, single point]
COc1ccc(-n2c(=O)c(-c3ccccc3)nc3cnc(N4CCNCC4)nc32)cc1 | 4.47 µM [rising, full curve, poor fit]
Cn1c(=O)c(-c2cc(F)cc(F)c2)nc2cnc(N3CCNCC3)nc21 | 17.8 µM [rising, single point]
Cn1cccc1C(=O)N1CCC2(CC1)CCN(c1cccc(-c3ccccc3)c1)CC2 | 17.8 µM [falling, single point]
O=C(c1ccco1)N1CCC2(CCCN(Cc3ccccc3)C2)CC1 | 5.62 µM [rising, partial curve]
CC(=O)OC1CC[C@@]2(C)C3CC[C@@]4(C)C(CC5O[C@@]6(CCC(C)CO6)C(C)C54)C3CC[C@@H]2C1 (stereo not given in full) | 39.8 µM [rising, single point]
COc1ccc(-n2c(=O)c(C)nc3cncnc32)cc1 | 0.0501 µM [rising, full curve, poor fit]
CC(C)c1cccc(O)c(=O)c1 | 0.00891 µM [falling, full curve, poor fit]
CCn1cc(C(=O)O)c(=O)c2cc3c(cc21)OCO3 | 11.2 µM [rising, partial curve]
CCCN1CC(CSC)C[C@H]2c3cccc4[nH]cc(c34)C[C@H]21 (stereo not given in full) | 17.8 µM [rising, single point]
CN(C)c1ncc2nc(-c3cc(F)cc(F)c3)c(=O)n(C)c2n1 | 6.31 µM [rising, full curve]
Cn1c(=O)c(CCc2ccccc2)nc2cnc(N3CCNCC3)nc21 | 0.0282 µM [rising, full curve, poor fit]
CN(C)c1ncc2nc(-c3cc(F)cc(F)c3)c(=O)n(Cc3ccc(F)cc3)c2n1 | 0.794 µM [rising, full curve, poor fit]
c1cncc(-c2ccc3ncnc(NC4CCNCC4)c3c2)c1 | 6.31 µM [rising, full curve, poor fit]
CC(=O)[C@]1(O)CCC2C3CC(C)C4=CC(=O)C=CC4(C)[C@@]3(F)C(O)C[C@]21C (stereo not given in full) | 39.8 µM [rising, single point]
COc1ccc(NC(=O)N2CC[C@@]3(CCCN(C(=O)c4cccc(F)c4)C3)C2)cc1 | 2 µM [rising, full curve, poor fit]
COc1ccccc1CCn1c(=O)c(-c2ccc(F)cc2)nc2cncnc21 | 0.0112 µM [rising, full curve, poor fit]
N#CCCn1c(=O)c(-c2ccc(F)cc2)nc2cnc(Oc3ccccc3)nc21 | 0.2 µM [rising, full curve, poor fit]
COc1ccc2[nH]cc(CCNc3cc(-c4ccccc4CN(C)C)ncn3)c2c1 | 6.31 µM [rising, partial curve]

Compound | AC50
COc1cccc(Nc2ncc3ncc(=O)n(CCC#N)c3n2)c1 | 0.0794 µM [rising, full curve, poor fit]
NC(=O)c1ncn([C@@H]2O[C@H](CO)[C@@H](O)[C@H]2O)c1O | 44.7 µM [rising, single point]
COc1ccc(Oc2ncc3ncc(=O)n(-c4ccc(OC)cc4)c3n2)cc1 | 3.16 µM [rising, full curve, poor fit]
COc1ccccc1-c1ccc2ncnc(NCc3cccnc3)c2c1 | 39.8 µM [falling, single point]
COc1ncc2nc(-c3ccc(Cl)cc3)c(=O)n(Cc3cccs3)c2n1 | 1.41 µM [rising, partial curve]
COCCNc1nc(-c2ccccc2C(F)(F)F)nc2ccccc12 | 0.00708 µM [rising, full curve, poor fit]
CN(C)C(=O)c1ccc(-c2nc(Nc3ccncc3)c3ccccc3n2)cc1 | 1.78 µM [rising, partial curve, poor fit]
O=c1[nH]cnc2c1ncn2C1CC(O)C(CO)O1 (stereo not given) | 7.08 µM [rising, single point]
CC(=O)OCC(=O)[C@@]1(O)CCC2C3CCC4=CC(=O)CC[C@]4(C)C3C(=O)C[C@]21C (stereo not given in full) | 10 µM [rising, partial curve]
CC(C)NC(=O)N1CCCC2(CCN(C(=O)c3ccco3)CC2)C1 | 3.98 µM [rising, partial curve, poor fit]
O=C(Nc1ccccc1)N1CC2(CCN(C(=O)c3cc(C(F)(F)F)cc(C(F)(F)F)c3)CC2)C1 | 5.01 µM [rising, partial curve, poor fit]
CN1CCN(c2ncc3ncc(=O)n(CCc4ccccc4)c3n2)CC1 | 0.158 µM [rising, full curve]
COCCNc1ncnc2ccc(-c3c(C)noc3C)cc12 | 3.55 µM [rising, single point]
CCOc1ccc(Cc2nccc3cc(OCC)c(OCC)cc23)cc1OCC | 14.1 µM [falling, single point]
COc1ccc(-n2c(=O)c(C)nc3cnc(N4CCNCC4)nc32)cc1 | 0.0708 µM [rising, full curve, poor fit]
CC(=O)N1CCC2(CC1)CCN(c1ccccc1)CC2 | 39.8 µM [rising, single point]
COc1ccc(C(=O)N2CCC3(CCCN(C(=O)NC(C)C)C3)CC2)cc1 | 0.0316 µM [rising, full curve, poor fit]
O=C(c1csnn1)N1CCC[C@@]2(CCN(Cc3ccccc3)C2)C1 | 0.0126 µM [rising, full curve, poor fit]
